Laboratory results from publication PMC4336329 (PLoS ONE, 2015).
In all, about 310,000 compounds went through this assay and about 2,200 (0.71%) showed an effect of 50% or more. Effects have a minus sign here. The list shows a part of the results.

Target: human ether-à-go-go-related gene (hERG) potassium channel (human, UniProt Q12809)
Assay: primary screen, population patch clamp on CHO cells stably expressing hERG

Chain of human ether-à-go-go-related gene (hERG) potassium channel (Q12809 whole entry, looked up): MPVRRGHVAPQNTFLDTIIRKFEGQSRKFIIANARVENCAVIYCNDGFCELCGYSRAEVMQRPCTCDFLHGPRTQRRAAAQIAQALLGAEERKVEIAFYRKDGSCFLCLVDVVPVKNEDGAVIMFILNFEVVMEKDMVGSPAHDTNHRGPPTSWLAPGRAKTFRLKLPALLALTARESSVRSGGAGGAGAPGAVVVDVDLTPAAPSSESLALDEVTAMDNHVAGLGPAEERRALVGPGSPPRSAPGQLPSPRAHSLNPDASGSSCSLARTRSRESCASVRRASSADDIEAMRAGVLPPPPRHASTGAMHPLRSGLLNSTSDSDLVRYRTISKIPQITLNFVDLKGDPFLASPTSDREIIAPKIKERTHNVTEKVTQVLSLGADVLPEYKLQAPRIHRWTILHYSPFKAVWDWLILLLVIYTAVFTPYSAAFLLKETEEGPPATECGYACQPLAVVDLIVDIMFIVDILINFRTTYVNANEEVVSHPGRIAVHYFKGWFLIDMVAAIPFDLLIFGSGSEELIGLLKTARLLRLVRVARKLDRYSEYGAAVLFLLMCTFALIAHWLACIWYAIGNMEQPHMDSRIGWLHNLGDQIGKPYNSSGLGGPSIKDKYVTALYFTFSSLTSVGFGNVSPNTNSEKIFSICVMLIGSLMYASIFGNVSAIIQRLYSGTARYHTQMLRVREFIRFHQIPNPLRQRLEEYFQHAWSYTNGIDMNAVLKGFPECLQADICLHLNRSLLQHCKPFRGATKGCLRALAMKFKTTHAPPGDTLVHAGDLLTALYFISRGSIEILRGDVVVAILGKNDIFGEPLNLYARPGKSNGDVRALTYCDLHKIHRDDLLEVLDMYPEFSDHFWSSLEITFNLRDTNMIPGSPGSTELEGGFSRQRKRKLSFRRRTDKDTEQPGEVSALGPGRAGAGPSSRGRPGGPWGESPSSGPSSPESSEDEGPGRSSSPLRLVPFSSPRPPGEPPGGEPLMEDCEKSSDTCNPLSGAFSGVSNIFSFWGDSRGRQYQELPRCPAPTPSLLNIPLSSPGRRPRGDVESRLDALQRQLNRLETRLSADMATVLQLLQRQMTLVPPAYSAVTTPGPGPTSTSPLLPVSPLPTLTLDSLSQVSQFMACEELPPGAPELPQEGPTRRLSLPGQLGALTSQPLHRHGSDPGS

| Structure (SMILES) | hERG current change (%, negative = inhibition) at 1uM [%] |
| --- | --- |
| CC(Nc1cc(N2CCN(S(=O)(=O)N(C)C)CC2)ccc1[N+](=O)[O-])c1ccccc1 (stereo not drawn) | 14.2 |
| COc1ccc(C2(C)NC(=O)NC2=O)cc1OC (stereo not drawn) | 12.6 |
| COc1ccc(C(C)C)cc1S(=O)(=O)Nc1ccncc1 | 11 |
| CCOC(=O)c1ccccc1NC(=O)COC(=O)C1CC(=O)N(c2ccc3c(c2)OCCO3)C1 (stereo not drawn) | 32.3 |
| COC(=O)c1sccc1N/N=C/c1cccc(OC)c1O | 16.8 |
| CC1CCCCN1S(=O)(=O)c1ccc(NC(=O)c2ccco2)cc1 (stereo not drawn) | 5.1 |
| CCc1nnc(NC(=O)CN2CCN(Cc3ccccc3C)CC2)s1 | 14.2 |
| COc1ccc(OC(=O)N(C)C)c(CN(C)C)c1.Cl | 6.42 |
| Cc1cc(NC(=O)c2cccs2)n(-c2nc3ccccc3[nH]2)n1 | 11 |
| Nc1ncnc2nc[nH]c12.O=S(=O)(O)O | 20.3 |
| Cc1cc(C(=O)COC(=O)c2cccc(O)c2)c(C)n1C1CC1 | 11.2 |
| CC1(c2ccccc2)NC(=O)N(CC(=O)NCC2CCCO2)C1=O (stereo not drawn) | 7.01 |
| COC(=O)c1nc(-c2ccccc2)oc1N(C)C | 8.02 |
| COCCN(CCOC)S(=O)(=O)c1ccc(C(=O)Nc2nc3c(s2)CCc2ccccc2-3)cc1 | 14.8 |
| Cc1ccc(-c2nc3ccccc3[nH]2)cc1N | 2.65 |
| CC(=O)Nc1ccc2oc(C)nc2c1 | 22.4 |
| CC(=O)NC(=S)Nc1cccc2c(C)cc(C)nc12 | -5.54 |
| COc1cccc(Nc2nc3ccccc3nc2NS(=O)(=O)c2cccs2)c1 | 14.7 |
| Cc1ccc(NC(=O)COC(=O)CCC(=O)c2ccc(Cl)cc2)cc1S(=O)(=O)N(C)C | 6.21 |
| CCOc1ccccc1COC(=O)c1cccc(-n2cnnn2)c1 | -2.92 |
| COc1ccc(/C=C/C(=O)Nc2cc(C)nn2-c2nc3ccccc3[nH]2)cc1 | 9.98 |
| COc1ccc(-c2ccc3oc(-c4ccc(OC)cc4)c(C#CCO)c3c2)cc1 | 14 |
| Cc1ccc(-c2cc(-c3ccccc3)nc(NN)n2)cc1 | 14.4 |

| Structure (SMILES) | hERG current change (%, negative = inhibition) at 1uM [%] |
| --- | --- |
| CCN1CCN(c2ccc(S(=O)(=O)N3CCCCC3)cc2NC(=O)COc2ccc(F)cc2Cl)CC1 | -12.8 |
| CCOC(=O)C1CCN(C(=O)c2ccccc2NC(=O)c2ccc(Br)cc2)CC1 | -8.28 |
| Cc1ccc(N2CCN(C(=O)NC3CCCCC3)CC2C)cc1 (stereo not drawn) | 2.82 |
| Nc1ccc2c(c1)C(=O)N(CCCC(=O)O)C2=O | 1.78 |
| O=C1CC2C(=O)NCCN2C(=NC(=O)c2ccccc2)N1 (stereo not drawn) | 6.53 |
| C/C(=N\NP(=S)(c1ccccc1)c1ccccc1)c1ccc(O)cc1O | 14.2 |
| O=c1ccc(-c2nc3ccccc3n2Cc2ccc(Cl)cc2)c[nH]1 | -50.5 |
| O=C(COC(=O)C1CCN(c2ccc(C(F)(F)F)cn2)CC1)Nc1ccc(Cl)cn1 | 6.59 |
| CC(=O)c1cn(Cc2ccc(C#N)cc2)c2ccccc12 | 5.8 |
| N#CC1(NC(=O)CSc2nnc(-c3ccccc3F)n2N)CCCCC1 | 13.6 |
| NNC(=O)c1ccc(COc2ccc3ccccc3c2)cc1 | -6.21 |
| CN1C(=O)C(=Cc2cccnc2)C(=O)N(C)C1=O | 20 |
| CCOc1ccccc1C1C(C(N)=O)=C(C)Nc2nc(-c3ccc(OC)cc3)nn21 (stereo not drawn) | 12.1 |
| CCc1nc2n(n1)C(O)c1cc([N+](=O)[O-])ccc1S2 (stereo not drawn) | 10.4 |
| Cc1ccnc(NS(=O)(=O)c2ccc(NC(=O)c3ccc([N+](=O)[O-])s3)cc2)n1 | 6.9 |
| COC(=O)c1sccc1NC(=O)CSc1ccccc1NS(=O)(=O)c1ccccc1Cl | 12.3 |
| COc1ccc2c(C(F)(F)F)cc(=O)oc2c1C | 5.28 |
| CN(C)c1ncnc2c1ncn2C1OC(CO)C(O)C1O (stereo not drawn) | 11.2 |
| CN(C)CCc1nc2ccccc2c(=O)n1-c1ccccc1.Cl | 8.16 |
| Cc1ccc2nc(C)c(C(=O)N/N=C/c3cccs3)cc2c1 | 3.53 |
| COc1cccc(C(=O)Nc2ccccc2NC(=O)c2cccc(OC)c2)c1 | 12.5 |
| COc1cc2nc(N(CCCN(C)C)C(=O)c3ccc(S(=O)(=O)N(C)C4CCCCC4)cc3)sc2cc1OC.Cl | -4.3 |
| Cc1ccc(S(=O)(=O)NCCC(=O)NCC(c2cccs2)N(C)C)cc1C (stereo not drawn) | 10.3 |

| Structure (SMILES) | hERG current change (%, negative = inhibition) at 1uM [%] |
| --- | --- |
| O=C(/C(=C(/[O-])c1ccccc1)[n+]1ccccc1)c1ccc([N+](=O)[O-])cc1 | 9.99 |
| COC(=O)c1c(C(=O)OC)c2n(c1C)CCS2 | 5.12 |
| C/C(Cn1cnc([N+](=O)[O-])n1)=N\NC(=O)c1ccccc1 | 18.4 |
| O=C(NCc1cccnc1)c1cnn2ccccc12 | 12.6 |
| O=C(CN1CCN(C(=O)c2ccco2)CC1)NCc1ccc(Cl)cc1 | -35.1 |
| COc1ccc(-n2nc(C(=O)N3CCC(C#N)CC3)c3c4ccccc4n(C)c3c2=O)cc1 | -7.69 |
| CCOc1ccc(C2c3[nH]c4ccccc4c3C[C@H]3C(=O)N(C4CC4)CC(=O)N23)cc1OC (stereo partly drawn) | 5.86 |
| O=C1COc2ccc(C(=O)COC(=O)c3ccco3)cc2N1 | 8.78 |
| COc1cccc(=O)c2c(C)n(-c3ccc(C(=O)O)cc3)c(C)c12 | 8.3 |
| Cc1cc(=O)oc2cc(OCCSCCN3CCCCC3)ccc12 | 10 |
| CSc1nc2sc3c(c2c(=O)[nH]1)CCc1ccccc1-3 | 0.433 |
| COc1ccc(CCNC(=O)C(C)Sc2ccc(C)cc2)cc1OC (stereo not drawn) | 5.64 |
| CC1CCCN(C2=C(Cl)C(=O)N(c3cccc(Cl)c3)C2=O)C1 (stereo not drawn) | 4.58 |
| COC(=O)c1ccc(NC(=O)CSCc2ccc(C)cc2)cc1 | 3.01 |
| N#C/C(=C/c1ccc(N2CCOCC2)c([N+](=O)[O-])c1)C(N)=O | -4.14 |
| Cc1ccc(C)c(NC(=O)c2nc(Cl)ccc2Cl)c1 | 13.1 |
| O=C(NC1CCCCC1NC(=O)c1ccco1)c1ccco1 (stereo not drawn) | 18.2 |
| CCn1c(Cn2nnc(-c3ccccc3)n2)nnc1SCC(=O)Nc1cccc(C)c1C | 9.9 |
| CC(=O)c1ccc(N2CCN(CC(=O)NC(=O)NCc3ccccc3)CC2)cc1 | 11.6 |
| CN1CCN(C(=S)NC(=O)c2ccccc2Br)CC1 | 12.5 |
| COc1cccc(/C=N/Nc2nc3ccccc3[nH]2)c1OC | 17.2 |
| CC(=O)c1cccc(S(=O)(=O)N2CCCC(c3nc(-c4ccc(C)o4)no3)C2)c1 (stereo not drawn) | -0.0341 |
| CC(NC(=O)CCc1nnc(Cc2cccc(C(F)(F)F)c2)o1)C1CC1 (stereo not drawn) | 6.54 |

| Structure (SMILES) | hERG current change (%, negative = inhibition) at 1uM [%] |
| --- | --- |
| Cc1csc(=O)n1CC(=O)OCC(=O)NCc1ccc(F)cc1 | 10.9 |
| O=C(NCc1ccc(F)cc1)C1CCCN(S(=O)(=O)c2cccnc2)C1 (stereo not drawn) | 5.42 |
| CCCC(C)C(=O)NCc1ccc2c(c1)OCO2 (stereo not drawn) | 14.5 |
| C=CCn1c(O)c(C(C)=NCCc2c[nH]c3ccccc23)c(=O)[nH]c1=O | 7.13 |
| CCC(=O)Nc1cc2nn(-c3ccccc3)nc2cc1Cl | 7.31 |
| O=C(C[n+]1cc(Br)cc(Br)c1)c1cccc([N+](=O)[O-])c1.[Cl-] | 4.85 |
| COc1ccc(-c2csc3ncnc(N4CCN(S(=O)(=O)c5ccccc5C#N)CC4)c23)cc1 | 8.67 |
| CCN(CC)CCC(=O)N1c2ccccc2Sc2ccc(NC(=O)OC)cc21 | -3.81 |
| O=C(CCN1C(=O)C2C3C=CC(C3)C2C1=O)N1CCN(c2ccccc2Cl)CC1 (stereo not drawn) | -7.36 |
| Cc1oc2c(cc(NS(=O)(=O)c3ccc(Cl)cc3)c3ccccc32)c1C(=O)O | 7.56 |
| Cc1oc(-c2ccccc2Cl)nc1CS(=O)CC(=O)NC1CC1 (stereo not drawn) | 15.4 |
| Cc1ccc(C2=N/C(=C\c3cccs3)C(=O)N2Nc2ccccc2)cc1 | 11.8 |
| c1ccc(-c2onc3c2CCCC3)cc1 | 7.05 |
| COc1ccc(/C=N/S(=O)(=O)c2cccs2)cc1 | 6.11 |
| COC(=O)Cn1c(=NC(=O)c2cccc(OC)c2)sc2cc(OC)ccc21 | 2.26 |
| COC(=O)CNC(=O)C1Nc2ccc(OC(F)(F)F)cc2C2C=CCC12 (stereo not drawn) | 5.55 |
| CN(C)C1=NC[C@H](Cc2ccccc2)N1CCCC1CCCC1 | -56.8 |
| COc1ccc(C(C)C)cc1S(=O)(=O)Nc1ccccn1 | 0.543 |
| O=C(O)c1ccc(Cl)c(S(=O)(=O)N(Cc2ccccc2)c2ccccc2Cl)c1 | 14.9 |
| CCn1c(=O)cc(SCC(=O)NCc2ccco2)c2ccccc21 | 6.5 |
| COc1cccc(C2CC(c3ccccc3Cl)n3nnnc3N2)c1 (stereo not drawn) | 5.05 |
